Data reported in patent US8304419B2, “Chemical compounds” (priority 2007, dated 2012).
Structures can show the parent of a compound that is named as a salt.

Tests used:
Experiment in all cases: microbe, parasite or virus in culture
HIV-1 K103N RT mutant = conditions: Human immunodeficiency virus 1, HeLa, read-out: IC50 against K103N, HeLa cell assay
HIV-1 V106A RT mutant = conditions: Human immunodeficiency virus 1, HeLa, read-out: IC50 against V106A, HeLa cell assay
HIV-1 Y181C RT mutant = conditions: Human immunodeficiency virus 1, HeLa, read-out: IC50 against Y181C, HeLa cell assay
HIV-1 Y188L RT mutant = conditions: Human immunodeficiency virus 1, HeLa, read-out: IC50 against Y188L

| SMILES | IC50 (HIV-1 K103N RT mutant) | IC50 (HIV-1 V106A RT mutant) | IC50 (HIV-1 Y181C RT mutant) | IC50 (HIV-1 Y188L RT mutant) |
| --- | --- | --- | --- | --- |
| C#Cc1cc(C#N)cc(Oc2c(Cl)ccc(CNC(=O)c3[nH]cnc3Cl)c2F)c1 [Example 310, 4-chloro-N-({4-chloro-3-[(3-cyano-5-ethynylphenyl)oxy]-2-fluorophenyl}methyl)-1H-imidazole-5-carboxamide] | < 10 nM | < 10 nM | < 10 nM | < 10 nM |
| CN(C)Cc1cc(C#N)cc(Oc2c(Cl)ccc(CNC(=O)c3[nH]cnc3Cl)c2F)c1 [Example 311, 4-chloro-N-{[4-chloro-3-({3-cyano-5-[(dimethylamino)methyl]phenyl}oxy)-2-fluorophenyl]methyl}-1H-imidazole-5-carboxamide trifluoroacetate] | < 10 nM | < 10 nM | < 10 nM | < 10 nM |
| CC#Cc1cc(C#N)cc(Oc2c(Cl)ccc(CNC(=O)c3[nH]cnc3Cl)c2F)c1 [Example 317, 4-chloro-N-[(4-chloro-3-{[3-cyano-5-(1-propyn-1-yl)phenyl]oxy}-2-fluorophenyl)methyl]-1H-imidazole-5-carboxamide] | < 10 nM | < 10 nM | < 10 nM | < 10 nM |
| C[C@@H](O)C#Cc1cc(Cl)cc(Oc2c(Cl)ccc(CNC(=O)c3[nH]cnc3Cl)c2F)c1 [Example 319, 4-chloro-N-{[4-chloro-3-({3-chloro-5-[(3R)-3-hydroxy-1-butyn-1-yl]phenyl}oxy)-2-fluorophenyl]methyl}-1H-imidazole-5-carboxamide] | < 10 nM | < 10 nM | < 10 nM | < 10 nM |
| N#Cc1cc(Oc2c(Cl)ccc(CNC(=O)c3[nH]c(N)nc3Cl)c2F)cc(C(F)F)c1 [Example 327, 2-amino-4-chloro-N-[(4-chloro-3-{[3-cyano-5-(difluoromethyl)phenyl]oxy}-2-fluorophenyl)methyl]-1H-imidazole-5-carboxamide trifluoroacetate] | < 10 nM | < 10 nM | < 10 nM | < 10 nM |
| CCNc1nc(Cl)c(C(=O)NCc2ccc(Cl)c(Oc3cc(Cl)cc(C#N)c3)c2F)[nH]1 [Example 362, 4-chloro-N-({4-chloro-3-[(3-chloro-5-cyanophenyl)oxy]-2-fluorophenyl}methyl)-2-(ethylamino)-1H-imidazole-5-carboxamide trifluoroacetate] | < 10 nM | < 10 nM | < 10 nM | < 10 nM |
| CNc1nc(Cl)c(C(=O)NCc2ccc(Cl)c(Oc3cc(Cl)cc(C#N)c3)c2F)[nH]1 [Example 363, 4-chloro-N-({4-chloro-3-[(3-chloro-5-cyanophenyl)oxy]-2-fluorophenyl}methyl)-2-(methylamino)-1H-imidazole-5-carboxamide trifluoroacetate] | < 10 nM | < 10 nM | < 10 nM | < 10 nM |
| COc1cc(C#N)cc(Oc2c(Cl)ccc(CNC(=O)c3[nH]c(N)nc3Cl)c2F)c1 [Example 366, 2-amino-4-chloro-N-[(4-chloro-3-{[3-cyano-5-(methyloxy)phenyl]oxy}-2-fluorophenyl)methyl]-1H-imidazole-5-carboxamide trifluoroacetate] | < 10 nM | < 10 nM | < 10 nM | < 10 nM |
| N#Cc1cc(Cl)cc(Oc2c(Cl)ccc(Cn3cnc4nc[nH]c4c3=O)c2F)c1 [Example 368, 3-chloro-5-({6-chloro-2-fluoro-3-[(6-oxo-6,7-dihydro-1H-purin-1-yl)methyl]phenyl}oxy)benzonitrile trifluoroacetate] | < 10 nM | < 10 nM | < 10 nM | 10 to 1000 nM |
| N#Cc1cc(Cl)cc(Oc2c(Cl)ccc(Cn3cnc4cc[nH]c4c3=O)c2F)c1 [Example 369, 3-chloro-5-({6-chloro-2-fluoro-3-[(4-oxo-4,5-dihydro-3H-pyrrolo[3,2-d]pyrimidin-3-yl)methyl]phenyl}oxy)benzonitrile] | < 10 nM | < 10 nM | < 10 nM | 10 to 1000 nM |
| C=CCc1cc(C#N)cc(Oc2c(Cl)ccc(Cn3cnc4nc[nH]c4c3=O)c2F)c1 [Example 373, 3-({6-chloro-2-fluoro-3-[(6-oxo-6,7-dihydro-1H-purin-1-yl)methyl]phenyl}oxy)-5-(2-propen-1-yl)benzonitrile] | < 10 nM | < 10 nM | < 10 nM | < 10 nM |
| N#Cc1cc(Oc2c(Cl)ccc(CNC(=O)c3[nH]cnc3Br)c2F)cc(C(F)F)c1 [Example 375, 4-bromo-N-[(4-chloro-3-{[3-cyano-5-(difluoromethyl)phenyl]oxy}-2-fluorophenyl)methyl]-1H-imidazole-5-carboxamide] | < 10 nM | < 10 nM | < 10 nM | < 10 nM |
| N#Cc1cc(Cl)cc(Oc2c(Br)ccc(CNC(=O)c3[nH]cnc3Br)c2F)c1 [Example 377, 4-bromo-N-({4-bromo-3-[(3-chloro-5-cyanophenyl)oxy]-2-fluorophenyl}methyl)-1H-imidazole-5-carboxamide] | < 10 nM | < 10 nM | < 10 nM | < 10 nM |
| N#Cc1cc(Cl)cc(Oc2c(Br)ccc(CNC(=O)c3[nH]cnc3Cl)c2F)c1 [Example 378, N-({4-bromo-3-[(3-chloro-5-cyanophenyl)oxy]-2-fluorophenyl}methyl)-4-chloro-1H-imidazole-5-carboxamide] | < 10 nM | < 10 nM | < 10 nM | < 10 nM |
| N#Cc1cc(CN2CCOCC2)cc(Oc2c(Cl)ccc(CNC(=O)c3[nH]cnc3Cl)c2F)c1 [Example 383, 4-chloro-N-[(4-chloro-3-{[3-cyano-5-(4-morpholinylmethyl)phenyl]oxy}-2-fluorophenyl)methyl]-1H-imidazole-5-carboxamide] | < 10 nM | < 10 nM | < 10 nM | < 10 nM |
